The supplement of paper PMC10126150
Sequences with one replicate were seen in a single cluster, so their values are uncertain.

test system: ATP; assay: switch fluorescence ratio, 500 uM ATP over buffer (Cy3 cluster intensity, sum of 5 cycles each) (fold (ratio)); higher = stronger signal-on switching upon ATP binding; sequences stand for … in TCGTCGGCAGCGTCAGATGTGTATAAGAGACAGTTTTTTTTTTTTTTTTTTTTTTTTT…TC; details: aptamer strand: ATP DNA aptamer (quencher-CACCTGGGGGAGTATTGCGGAGGAAGG + anchor), 100 nM annealed; ATP concentration: 500 uM; one replicate
Outline: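 Five buffer/ATP imaging cycles were run on Cy3-labelled switching-strand clusters on a modified Illumina MiSeq flow-cell, with NaOH stripping and re-annealing between cycles. In each cycle, clusters annealed to 100 nM quencher-labelled ATP aptamer were imaged in selection buffer, then after 15 min with 500 uM ATP at 22 °C. Per cluster, the fluorescence ratio is summed target-cycle over summed buffer-cycle Cy3 intensity, averaged per switch-domain sequence. Only clusters within 100-1000 RFU were kept.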
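Further: ATP exposure 15 min at 22 °C before imaging.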

Row | Sequence | switch fluorescence ratio
1 | TGAAGGATGT | 1.04
2 | AATCAGCGGA | 1.01
3 | TGAGTCCTGG | 1.01
4 | TCGATGCGAG | 1.03
5 | CAGTATGGCT | 0.977
6 | AGTAAGAACT | 1.05
7 | GAGTGGTAGT | 0.962
8 | TCAGGAGGCC | 1.07
9 | CCTGTCTAGT | 0.973
10 | CATCATTTTC | 1.03
11 | GCCATATGA | 1.04
12 | CCCGTGCTTT | 1.06
13 | CGTTTAATTG | 0.998
14 | CATGGCATTC | 1.24
15 | GGGAATTTAC | 1.04
16 | TGTGCTAGGA | 0.984
17 | CCTTACTTAT | 1.08
18 | TAGAAGCTGG | 0.994
19 | AAAAGGGTTT | 0.986
20 | CTGAATCAT | 1.01
21 | GGACTATAGC | 1
22 | GTCCTTTGGG | 1.65
23 | TTGCAATCGT | 1.14

Row | Sequence | switch fluorescence ratio
24 | ATTTAGTAAC | 1.11
25 | ACCAATCCCC | 1.17
26 | TAAAAAGG | 0.998
27 | CAATTCAAGC | 1.4
28 | GCCATAGCGT | 1.01
29 | GCGGGTCTCT | 1.03
30 | ATGGTTACAT | 1.05
31 | CACAGTTCCC | 1.02
32 | AATCGGACC | 1
33 | CTGCCTAAGT | 1.05
34 | GAAAGCCGCA | 1.08
35 | ATGAACGCTA | 1.92
36 | CGTTTCACCG | 1
37 | CTCATGCTGC | 1.43
38 | CGTGCAGTAT | 1.06
39 | TTGGTTGTTC | 1.03
40 | GGAAACGGAG | 0.995
41 | TTGTGGCTTG | 0.986
42 | TGTTAGAGGT | 1.01
43 | TACAGCTCGA | 1.02
44 | CGACTTAGAA | 0.997
45 | TTTGTGGCCC | 1.09
46 | CCGCGGACCT | 1.11

Row | Sequence | switch fluorescence ratio
47 | GGTTTTCG | 1.01
48 | GATTGGTTAG | 0.991
49 | GCCCCTACGA | 1.07
50 | CTGTTAGCTC | 1.12
51 | CAACATGAAC | 1.06
52 | TTGCAGTATG | 1.1
53 | TCAACCGGAT | 1.03
54 | AAGGCAGAAC | 1.27
55 | AATGCACTTT | 1.05
56 | GTTGAACGG | 0.963
57 | TAGAAATAAA | 0.985
58 | TACCCTGGTT | 1.09
59 | GGTCGAGTGA | 0.989
60 | CGCCTCTGTT | 1
61 | AACCATTGG | 1.03
62 | GTGCGTAGGC | 0.963
63 | AGGAGACA | 1.01
64 | ATCGTACTTC | 1.06
65 | ACGGTGAGA | 0.995
66 | TTGCCACTGG | 1.16
67 | TACCTGGCGC | 1.03
68 | ACGATGT | 0.984
69 | TCAAAGGTCT | 1.02

Row | Sequence | switch fluorescence ratio
70 | TCTTTGTGTC | 0.974
71 | CCCTTAGCTT | 1.1
72 | TCATCTG | 0.999
73 | CGTTGTCGAC | 0.997
74 | TCTTTGGGCA | 1
75 | CTGTCTCACA | 1.02
76 | TGGTCGCCG | 0.985
77 | GAATTACGTC | 1.17
78 | CGTCATCCTT | 0.963
79 | GCAACAGTGG | 0.98
80 | CATAGAAAGT | 1
81 | ACAAAAAAA | 0.985
82 | TCCGCTTAAA | 1.03
83 | GGAGACTCGA | 0.996
84 | GCACAAGCAA | 1.01
85 | AACGTGCTTG | 1.08
86 | AAGGTTCGCC | 0.962
87 | ATGCTTTGCA | 1.05
88 | TGATTTACG | 1.02
89 | AAGACCTCCG | 1.18
90 | ACCCTCTGTG | 1.12
91 | AACTATTCCT | 1.15
92 | TTACGCAAGG | 1.64

Row | Sequence | switch fluorescence ratio
93 | AAAGCCTCCT | 1.1
94 | CACTTCCGAT | 1.78
95 | CGATTGGTCT | 1
96 | AAAATTCCCG | 1.07
97 | CATTGACAGC | 1.01
98 | CTTGTGCATA | 1.14
99 | GAAGTAATGT | 0.986
100 | AGTGCCTCGT | 0.95
101 | GATGGAAAGA | 0.957
102 | TAATGCCGAA | 1.03
103 | TAGCTTTGCG | 1.07
104 | AGACCGCTCT | 1
105 | TTACGTCTCT | 1.02
106 | ATATATGACA | 1
107 | ACGCACTTT | 1.49
108 | AGTCTTGCGC | 1.02
109 | GCTTCCTATG | 1.53
110 | GGGTATAATC | 0.96
111 | CAATTCGGGA | 0.99
112 | ATGCCATCAA | 1.01
113 | CGGAGTTGCC | 1.03
114 | CCCGGCGAGG | 1.02
115 | ACAGAGCACC | 1.12

Row | Sequence | switch fluorescence ratio
116 | CTATAAAGAG | 0.993
117 | AGAGTCTCAG | 1.02
118 | CGTAGGGTGC | 1.1
119 | TATGGTGTAC | 0.976
120 | GACCCAGGTC | 1.13
121 | GTGTTGCTGG | 0.997
122 | TACGGCCGTC | 1.05
123 | TGGGTAATTA | 0.989
124 | ATGCCTTTCG | 1.01
125 | CAACAAACGA | 1.2
126 | ACGGCGCG | 0.96
127 | TGGCACGGTG | 1.07
128 | GACGCGAAGA | 1.31
129 | TGGTGTGCAG | 0.929
130 | GTCTTAGTGT | 0.967
131 | TATGTAGGGT | 0.983
132 | TGGAGTCGAT | 0.963
133 | CAAAGCTAAG | 1.01
134 | ACGGACTCGG | 1.04
135 | ACCGCTGGGA | 0.994
136 | GTTTTAGCGT | 1
137 | CATTACGTTA | 1.15
138 | CACATGTCGC | 1.01

Row | Sequence | switch fluorescence ratio
139 | CGTGCTAGGT | 1
140 | AGCTAGCGGA | 0.962
141 | ACTAGGGGAT | 1.01
142 | GTCCGTCAAA | 1.08
143 | ACTCAGAGCC | 1.05
144 | TTTAAGGCGA | 1.01
145 | GATTATAAAT | 0.958
146 | AAGTGCTTCA | 1
147 | AACTGTGTCT | 0.994
148 | TAACTCGGAC | 1.1
149 | CCACAGGGGG | 1.79
150 | TGGGAGATAA | 0.961
151 | CGTTTTGGAA | 0.956
152 | GGGGTTTCTA | 1.02
153 | GGGTATATTC | 0.954
154 | TCTGGACTGG | 1.01
155 | CTGGGGTCTC | 0.975
156 | AATTGAAAG | 1.02
157 | TAAATAGTGA | 1.01
158 | ACGTTGACAA | 1.29
